According to the supplement of paper PMC11417369:
± gives the standard deviation of the averaged measurements. The list shows a part of the results.

What follows are sequences tested on PfAP2-LT AP2 domain (GST-tagged) (assay: gcPBM binding intensity (ln(normalized median fluorescence intensity)); higher = stronger DNA binding).
How it was run: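 An Agilent 4 × 180k array carrying primer-extended double-stranded 36-bp intergenic genomic probes and negative controls received GST-tagged P. falciparum DNA-binding domains expressed in E. coli, about 25 μg on average, for 1 h. The binding buffer contained 1× PBS, 1% milk, 0.2 mg/ml BSA, 0.5% salmon testes DNA and 0.03% Triton X-100. Binding intensity is the top Masliner-normalised natural-log median intensity across replicate spots of either probe orientation, read after Alexa488 anti-GST antibody staining and a 488 nm scan.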

| Sequence | gcPBM binding intensity (ln) |
| --- | --- |
| CTATTATAAAAATGATGTACACTTATATATACATAT [XGTACX_site6087] | 8.87 ± 0.53 |
| TTTTTTTTTTGAATATGTACTTAAAAAAATTTTTTT [XGTACX_site3851] | 8.35 ± 0.55 |
| TACATACATACATACATACACACATATATATATATA [CACACA_site1996] | 9.88 ± 0.099 |
| TACATGTATAATATAATACACACTATATAATATACA [CACACA_site2239] | 8.96 ± 0.38 |
| AAATTATAATTAGGAACACACATATATATATATATA [CACACA_site3098] | 9.78 ± 0.29 |
| TTAATATAAATATGATTTTTGATTCCTATACTATTT [CACACA_negctrl_site752] | 8.59 ± 0.45 |
| TTGTATTCATATGGTTGTACATATTAAAAGTTCTAA [XGTACX_site7255] | 8.47 ± 0.47 |
| ATAAGGTTACAACAAACACACAAAGGAATATACGCA [CACACA_site4090] | 9.35 ± 0.49 |
| AAGAAGAATAGGCGTTGTACGGAATGTAGTAGAGTT [XGTACX_site2430] | 9.26 ± 0.46 |
| ATACGACAAATATAAAGTACAAGCTTGGTTTTTATA [XGTACX_site8103] | 8.88 ± 0.59 |
| AATTATGGGGAAAAGACACACATATATATATATATA [CACACA_site2589] | 9.84 ± 0.085 |
| TATGCAAGGAACCACACACACACACGGAAATGTATA [CACACA_site6490] | 9.95 ± 0.43 |
| ATTCTATAGAAACACACACACATGCATGCACCTATA [CACACA_site107] | 9.91 ± 0.33 |
| TTATATATATATGTATGTACTTATAACTTTTATTAG [XGTACX_site3190] | 8.73 ± 0.42 |
| TTCTTTTTTTTCAGTTGTACTTATAAGAAAGAAAAA [XGTACX_site4028] | 8.01 ± 0.23 |
| TTTATTTTTAAAGGCACACACATTTTTATTTTTAAA [CACACA_site2021] | 8.77 ± 0.49 |
| TTTATTTATAGAATTACACACATATATACACAAATG [CACACA_site7338] | 8.97 ± 0.35 |
| TTATTATAAATAGGTAGTACATTTTGAACAAATATT [XGTACX_site8866] | 8.43 ± 0.45 |
| ATATATATAACAAAAGTGCATTAAGGGGATGCTATA | 8.82 ± 0.49 |
| AATATAAATATAGGAAATGTAGTTAAAAGGTGTATG [CACACA_negctrl_site1233] | 8.82 ± 0.59 |
| TTTTATATATTCAATTGTACATGTATTTTTTTTTTT [XGTACX_site3584] | 8.82 ± 0.5 |
| CAAAGACACAAACACACACACACATACATACATACA [CACACA_site453] | 10.3 ± 0.42 |
| TATGGGTATGTATTCACACATAACAAAAATATCAAA [CACACA_site5059] | 8.87 ± 0.49 |

| Sequence | gcPBM binding intensity (ln) |
| --- | --- |
| ATATATATATATAACACACGCAAAAAAATTAAATAA [CACACA_site1400] | 9.16 ± 0.38 |
| TATACTGATAAAAAAAGTACTAGAGTTTGTAAAAAT [XGTACX_site3934] | 8.63 ± 0.49 |
| CACAAGAAAGTTCACACACACACATATATATATATA [CACACA_site6009] | 9.93 ± 0.62 |
| TTATATGTCAATTTGCGTACATACATAATTACATAT [XGTACX_site1546] | 9.01 ± 0.44 |
| AATTTTAATTTTTTGACACACATATAATATATATAT [CACACA_site3978] | 8.88 ± 0.46 |
| ATAAATTTACTTGATTGTACATTTCTTAGTTGTATT [XGTACX_site3057] | 8.95 ± 0.47 |
| GGTATACTCAAGTATACACACATATATATATATATA [CACACA_site5746] | 9.64 ± 0.49 |
| AAAATATATTAAGGCACACACATACAGATATATATA [CACACA_site5951] | 9.46 ± 0.41 |
| TACATACACAAATACACACACAAATACATACCCAAA [CACACA_site4550] | 9.74 ± 0.2 |
| TTTTTTCTTTTTTTTTTTTTTTTCTTTTTTTTTTTT [GTGCAC_negctrl_site196] | 8.36 ± 0.55 |
| TACGTGAAATTATATACACACATAAATATGGGTGTA [CACACA_site5687] | 8.88 ± 0.37 |
| TACATGATAGATCACACACACATATAAATATATATA [CACACA_site5562] | 9.45 ± 0.43 |
| TAAAATAACTCACAAAGTACAAAAATAAGCATATGA [XGTACX_site7046] | 8.89 ± 0.47 |
| ACATAAGACACAAATACACACAAAAATATATAACAA [CACACA_site4082] | 9.44 ± 0.37 |
| AACAATATGGATGTATGTACACATATAGAACGTTAT [XGTACX_site7142] | 9.34 ± 0.59 |
| TATGCATTTATGCATTGTACTTTTATAGATTCCACC [XGTACX_site7121] | 8.59 ± 0.49 |
| TACAAAAAAAAAGAACGTACAAAAAATTTCAAAAAT [XGTACX_site5860] | 8.76 ± 0.51 |
| GAAATTTTATTACTTTTACACACCTATATATTATTC [CACACA_site9076] | 9.04 ± 0.5 |
| ATATTATATATACACGCACACACACTAATATATATA [CACACA_site9092] | 9.67 ± 0.14 |
| ATGAACGGAAAAATATATATAAATATATATATCATG [XGTACX_negctrl_site342] | 8.78 ± 0.4 |
| TATGTATATATATTAACACACAAAAAAAAAAAAAAA [CACACA_site1812] | 8.84 ± 0.38 |
| TTAAACTATACCAAAACACACATACAAAATATAAAA [CACACA_site5494] | 9 ± 0.47 |
